Results on 15 compounds are retold here after article PMC11790949, “A multiplex method for rapidly identifying viral protease inhibitors” (Molecular Systems Biology, 2025).

One assay has as its target Bat-CoV-HKU4-3CL (Bat coronavirus HKU4, UniProt P0C6W3). The assay is classed as cell-based.
In another assay the target is Bat-CoV-HKU9-3CL (Bat coronavirus HKU9, UniProt P0C6W5). The assay is classed as cell-based.
A further assay deals with Bat-SV-CoVZC45-3CL. The assay is classed as cell-based, Bat SL-CoVZC45.
The next assay has as its system BWCoV-SW1-3CL. The assay is classed as cell-based, Beluga whale coronavirus SW1.
For another assay, the target named is HCoV-229E-3CL (Human coronavirus 229E, UniProt P0C6X1). The assay is classed as cell-based.
The target of the next assay is HCoV-HKU1-3CL (Human coronavirus HKU1, UniProt P0C6X2). The assay is classed as cell-based.
A further assay has as its target MERS-CoV-3CL (Middle East respiratory syndrome-related coronavirus, UniProt K9N7C7). The assay is classed as cell-based.
Another assay concerns the target SARS-CoV-2-3CL (Severe acute respiratory syndrome coronavirus 2, UniProt P0DTD1). The assay is classed as cell-based.
Another assay deals with HCoV-NL63-3CL (Human coronavirus NL63, UniProt P0C6X5). The assay is classed as cell-based.
The next assay addresses HAV-3C (Human hepatitis A virus genotype IB, UniProt P08617). The assay is classed as cell-based.
Another assay deals with HCoV-OC43-3CL (Human coronavirus OC43, UniProt P0C6X6). Put plainly: Yeast dose-response liquid growth assay (individual model). The note with it: HCoV-OC43-3CL model. The assay is classed as cell-based.
For another assay, the target named is Bat-SL-CoVZC45-PLP (Bat SARS-like coronavirus, UniProt A0A2R3SV02). The assay is classed as cell-based.
The next assay relates to POWV-NS2B-GS-NS3. The assay is classed as cell-based, tick-borne Powassan virus.
In a further assay the target is SARS-CoV-2 PLP (Severe acute respiratory syndrome coronavirus 2, UniProt P0DTD1). The assay is classed as cell-based.
In another assay the target is HCoV-NL63-PLP2 (Human coronavirus NL63, UniProt P0C6X5). Put plainly: Yeast dose-response liquid growth assay (individual model). The assay is classed as cell-based.
For another assay, the target named is MERS-CoV-PLP (Middle East respiratory syndrome-related coronavirus, UniProt K9N7C7). The assay is classed as cell-based.

Take `CCc1cc(=O)oc2cc(OC(=O)c3ccco3)ccc12` [CB6728297]: the Max relative growth at Bat-CoV-HKU4-3CL worked out at 1.746; at Bat-CoV-HKU9-3CL, 3.522; in the assay on Bat-SV-CoVZC45-3CL, 2.036; in the assay on BWCoV-SW1-3CL it was 5.597; on HCoV-229E-3CL it was 2.144; at HCoV-HKU1-3CL it was 6.457. For the same compound, the Max relative growth was found to be 1.327 on MERS-CoV-3CL, 4.207 on SARS-CoV-2-3CL, 3.578 on HCoV-NL63-3CL and 3.798 on HAV-3C.

Regarding `O=C(Oc1ccc2ccc(=O)oc2c1)c1cccs1` [CB6762077], the Max relative growth was determined as 1.561 on Bat-CoV-HKU4-3CL; 2.732 at Bat-CoV-HKU9-3CL; 1.8704 in the assay on Bat-SV-CoVZC45-3CL; 1.739 on HCoV-229E-3CL; 2.949 on SARS-CoV-2-3CL.

Consider `O=C(Oc1ccc2ccc(=O)oc2c1)c1ccco1` [CB6778425], for which the Max relative growth at Bat-CoV-HKU4-3CL is given as 2.045; on Bat-CoV-HKU9-3CL, 4.722; in the assay on Bat-SV-CoVZC45-3CL, 2.0048; with BWCoV-SW1-3CL, 4.474; at HCoV-229E-3CL, 3.883; at HCoV-HKU1-3CL, 5.701. The Max relative growth at MERS-CoV-3CL worked out at 1.396; at SARS-CoV-2-3CL, 3.098; at HCoV-NL63-3CL it was 1.41; on HAV-3C, 1.965.

As to `CCOC(=O)C(=O)Cc1nc2ccccc2s1` [NSC38490], on MERS-CoV-3CL, the “Inhibitor / Validation (true or false inhibitor in individual yeast model)” value (“Inhibitor / Validation” for short) is on record as “FALSE” and the Max relative growth came to 0.1943.

Consider `c1ccc2c(c1)-c1cccc3cncc-2c13` [NSC60419], for which the “Inhibitor / Validation” value at HCoV-OC43-3CL is reported as “FALSE”.

With `CCSc1nc(=S)cc(C)[nH]1` [NSC67307], on MERS-CoV-3CL, the “Inhibitor / Validation” value is listed as “FALSE” and the Max relative growth was 0.2492.

As to `N#Cc1ccc(NC2c3ccccc3CC2O)cc1` (stereo not drawn) [NSC69421], the “Inhibitor / Validation” value on HCoV-OC43-3CL is given as “FALSE”.

`Cc1cc2c(cc1C)N(C(=O)CCl)CC(=O)N2` [NSC138389]: the “Inhibitor / Validation” value on Bat-CoV-HKU4-3CL, in the assay with Bat-SV-CoVZC45-3CL, on SARS-CoV-2-3CL and with POWV-NS2B-GS-NS3 was “FALSE” throughout. In addition, the Max relative growth on Bat-CoV-HKU4-3CL turned out to be 0.5541; in the assay with Bat-SV-CoVZC45-3CL, 0.3635; at SARS-CoV-2-3CL, 0.3944; at Bat-SL-CoVZC45-PLP, 1.762; in the assay with POWV-NS2B-GS-NS3 it was 0.6792.

As to `CN(C(=O)c1ccncc1)c1ccccc1` [NSC204976], at MERS-CoV-3CL, the “Inhibitor / Validation” value is “FALSE” and the Max relative growth worked out at 0.8942.

Turning to `S=c1[nH]c2ccccc2n2cccc12` [NSC246415], at Bat-CoV-HKU4-3CL, the “Inhibitor / Validation” value is “FALSE” and the Max relative growth amounted to 0.5477.

For `CCOC(=O)c1c(NC(=S)NC)sc2c1CCCC2` [NSC280492], at Bat-CoV-HKU4-3CL, the “Inhibitor / Validation” value was “FALSE” and the Max relative growth worked out at 1.034.

In the case of `CNC(=O)Oc1c(C)[nH]ccc1=O` [NSC287495], the “Inhibitor / Validation” value at SARS-CoV-2 PLP and at HCoV-NL63-PLP2 was “FALSE” throughout.

With `CCOC(=O)Nc1ccc2nc(-c3cscn3)[nH]c2c1` [NSC299514], at HCoV-OC43-3CL, the “Inhibitor / Validation” value was “FALSE”.

Consider `NC(N)=NC(=S)Nc1ccc(Cl)cc1` [NSC403374], for which the Max relative growth with Bat-SV-CoVZC45-3CL is recorded as 1.334; on SARS-CoV-2-3CL, 1.288.

`Cc1cc(N(C)C)ccc1N=Nc1ccc2ncccc2c1` [NSC680516]: on MERS-CoV-PLP, the “Inhibitor / Validation” value is given as “FALSE” and the Max relative growth is recorded as 0.6371. In addition, the “Inhibitor / Validation” value on HCoV-NL63-PLP2 is “FALSE”.
